ChEMBL document CHEMBL1157539, “Thousands of chemical starting points for antimalarial lead identification” (Nature, 2010)
Where “and” joins values, the source holds several entries; their conditions need not be identical. Equal values may be shown once. Over roughly 13,000 compounds, “IFI” has its median near 4; the highest 2% begin near 17. The list shows a part of the results.

assay: GSK_TCMDC: Inhibition Frequency Index (IFI). The number of non-kinase HTS assays where a compound showed > 50 % inhibition, expressed as a percentage of the number of such assays in which the compound was tested (-0 is zero); type: functional

SMILES | IFI
COc1cc2nc(N(C)C3CCN(Cc4ccccc4)CC3)nc(N)c2cc1OC | 3.25%
O=C(/C=C/c1ccc(Cl)c(Cl)c1)NC1CCC(CN2CCC(c3c[nH]c4ccccc34)CC2)CC1 (configuration not stated) | 5.26%
Cc1ccc(CC(C)NCC(O)c2cccc(Cl)c2)cc1F (configuration not stated) | 2.82%
Cn1nc(-c2ccc(S(=O)(=O)N3CCC(CN4CCC(c5c[nH]c6ccccc56)CC4)CC3)s2)cc1C(F)(F)F | 4.26%
CCCc1cc([C@@H](O)[C@@H]2C[C@@H]3CCN2C[C@@H]3CC)c2ccccc2n1 | 1.46%
O=C(/C=C/c1ccc(Cl)c(Cl)c1)NCC1CCC(CN2CCC(c3c[nH]c4ccccc34)CC2)CC1 (configuration not stated) | 9.86%
O=C(Nc1ccc(Oc2ccccc2)cc1)NC1CCC(CN2CCC(c3c[nH]c4ccccc34)CC2)CC1 (configuration not stated) | 7.86%
O=C(/C=C/c1cc(F)cc(C(F)(F)F)c1)N1CCC(CN2CCC(c3c[nH]c4ccccc34)CC2)CC1 | 3.52%
Clc1ccc2nccc(N3CCC(CN4CCC(c5c[nH]c6ccccc56)CC4)CC3)c2c1 | 4.62%
CCC(C)CN1CCC(N(C)c2cc(NC(=O)c3ccc(F)cc3)ccn2)CC1 (configuration not stated) | 5.56%
COc1ccc(NC(=S)NC(NC(=O)CF)C(Cl)(Cl)Cl)cc1[N+](=O)[O-] (configuration not stated) | -0%
O=C(CCCCCc1ccccc1)NC1CCC(CN2CCC(c3c[nH]c4ccccc34)CC2)CC1 (configuration not stated) | 5%
CN(c1cc(NC(=O)c2cccs2)ccn1)C1CCN(Cc2cccc(C#N)c2)CC1 | 6.98%
CC(=O)Nc1ccc(OCCN(CC(F)(F)F)c2ccc(C#N)cc2C(F)(F)F)cc1 | 2.96%
CC(C)CNCc1ccc(-c2cccc(CN(C(=O)NC3CCCCC3)C3CCN(Cc4ccccc4)CC3)c2)cc1 | 8.09%
O=C(NC1CCC(CN2CCC(c3c[nH]c4ccccc34)CC2)CC1)c1cc(-c2cccc(Cl)c2)n(-c2ccc(Cl)cc2Cl)n1 (configuration not stated) | 7.75%
CC[C@H]1CN2CC[C@H]1C[C@H]2[C@H](O)c1ccnc2ccc(OC)cc12 | 0.73%
CC[C@H]1CN2CCc3cc(OC)c(OC)cc3[C@@H]2C[C@@H]1C[C@H]1NCCc2c1cc(OC)c(O)c2I | 9.6%
CCCCCCCCNCC(O)c1ccc(Cl)c(Cl)c1 (configuration not stated) | 11.1%
O=C(NCc1ccc(S(=O)(=O)N2CCC(CN3CCC(c4c[nH]c5ccccc45)CC3)CC2)s1)c1ccccc1 | 6.85%
CN1C2CCC1c1cc(NC(=O)c3cc(-c4ccc(Cl)cc4)cs3)ccc12 (configuration not stated) | 13.3%

SMILES | IFI
O=C(C=Cc1ccc(F)c(Br)c1)N1CCC(CN2CCC(c3c[nH]c4ccccc34)CC2)CC1 | 6.62%
OC1(CNCc2ccccc2)CCN(CCc2c[nH]c3ccc(F)cc23)CC1 | 4.93%
CS(=O)(=O)Nc1ccc2[nH]cc(C3CCN(CC4CCC(NC(=O)/C=C/c5ccc(Cl)c(Cl)c5)CC4)CC3)c2c1 (configuration not stated) | 3.65%
CC[C@H]1CN2CC[C@H]1C[C@H]2[C@H](O)c1cc(N2CCCC2)nc2ccc(OC)cc12 | -0%
COc1cc2c(c(OC)c1OC)C[C@H]1c3c(cc4c(c3-2)OCO4)CCN1C | 0.74%
Cc1cccc(C(=O)Nc2ccnc(N(C)C3CCN(CC(C)C)CC3)c2)c1 | 2.78%
CS(=O)(=O)Nc1ccc2c(C3CCN(CC4CCN(C(=O)/C=C/c5ccc(Cl)c(Cl)c5)CC4)CC3)c[nH]c2c1 | 2.88%
CCCc1c(C(=O)NC2CCC(CN3CCC(c4c[nH]c5ccccc45)CC3)CC2)cnn1-c1c(Cl)cc(Cl)cc1Cl (configuration not stated) | 9.93%
COC(=O)c1ccc(CC(C)NCC(O)c2cccc(Oc3cccc(C(F)(F)F)c3)c2)cc1 (configuration not stated) | 11.3%
Oc1ccc(Cl)cc1CN1CCC(CCOC(c2ccccc2)c2ccccc2)CC1 | 0.78%
Cc1nc2ccccc2n1C1CC2CCC(C1)N2Cc1nccn1-c1ccccc1 (configuration not stated) | 3.39%
CCOC(C(=O)OCC1CCCN(C)C1)(c1ccccc1)c1ccccc1 (configuration not stated) | 0.73%
O=C(/C=C/c1ccc(Cl)c(Cl)c1)N1CCC(CN2CCC(c3c[nH]c4cc5c(cc34)OCO5)CC2)CC1 | 5.34%
CC(Cc1ccc(SC(C)(C)C)cc1)NCC(O)c1cccc(Cl)c1 (configuration not stated) | 5.07%
CC(C)CNCc1cccc(-c2cccc(CN(C(=O)NC3CCCCC3)C3CCN(Cc4ccccc4)CC3)c2)c1 | 8.15%
COC(=O)c1ccc(C[C@@H](C)NC[C@H](O)c2cccc(C(F)(F)F)c2)cc1 | 1.5%
COc1cc(CN2CCN(c3ccnc(N(C)C4CCN(C)CC4)n3)CC2)cc(Cl)c1O | -0%
COc1ccc(C(=O)C2CC2CN2CC=C(c3c(C)[nH]c4ccccc34)CC2)cc1 (configuration not stated) | 1.85%
O=C(/C=C/c1ccc(Cl)c(Cl)c1)N(Cc1ccccc1)C1CCC(CN2CCC(c3c[nH]c4ccccc34)CC2)CC1 (configuration not stated) | 5.07%
CN1CC=C(c2csc3ccc(NC(=O)Nc4ccc(-c5ccncc5)c(Cl)c4)cc23)CC1 | 5.88%
CC[C@H]1CN2CC[C@H]1C[C@H]2[C@H](O)c1cc(-c2ccc(OC(F)(F)F)cc2)nc2ccc(OC)cc12 | 8.97%

SMILES | IFI
NC(=O)c1ccc2[nH]cc(C3CCN(CC4CCC(NC(=O)/C=C/c5ccc(Cl)c(Cl)c5)CC4)CC3)c2c1 (configuration not stated) | 3.57% and 1.43%
CN(C)c1cccc(CN2CC=C(c3c[nH]c4ccc(Cl)cc34)CC2)c1 | 10.1%
CCCCCCC(C)c1cc(O)c2c(c1)OC(C)(C)c1ccncc1-2 (configuration not stated) | 0.75%
CS(=O)(=O)Nc1ccc2[nH]cc(C3CC4CCC(C3)N4CC3CCC(NC(=O)/C=C/c4ccc(Cl)c(Cl)c4)CC3)c2c1 (configuration not stated) | 4.14%
CN(C)CCCOc1ccc(CN2CCC(c3c[nH]c4ccc(NCC5CCCCC5)cc34)CC2)cc1 | 14.1%
CC(C)NC(=O)Cn1cc(C2CCN(CC3CCN(C(=O)/C=C/c4ccc(Cl)c(Cl)c4)CC3)CC2)c2ccccc21 | 3.33%
CC[C@H]1CN2CC[C@H]1C[C@H]2[C@H](O)c1cc(N2CCCC(C(=O)N(CC)CC)C2)nc2ccc(OC)cc12 (some centres not stated) | 3.08%
COc1cccc(C=CC(=O)NC2CCC(CN3CCC(c4c[nH]c5ccccc45)CC3)CC2)c1OC (configuration not stated) | 5.97%
Cc1cc(C(=O)NC2CCN(CC3(c4ccc(Cl)cc4)CCC3)CC2)on1 | -0%
c1ccc2c(NCCCCCCNc3c4ccccc4nc4ccccc34)c3ccccc3nc2c1 | 9.22%
Cn1nc(-c2ccc(S(=O)(=O)NC3CCC(CN4CCC(c5c[nH]c6ccccc56)CC4)CC3)s2)cc1C(F)(F)F (configuration not stated) | 5.67% and 7.09%
O=C(Cc1c(-c2ccccc2)[nH]c2ccccc12)NC1CCC(CN2CCC(c3c[nH]c4ccccc34)CC2)CC1 (configuration not stated) | 10.3%
Cc1cc(C2CCCCN2C)ccc1-c1ccc(C(=O)N2CCc3cc4c(cc32)C2(CCN(C)CC2)CO4)cc1 (configuration not stated) | 8.21%
COC(=O)c1ccc(CC(C)NCC(O)c2ccc(F)c(Cl)c2)cc1 (configuration not stated) | 2.86%
COc1ccc(CC(C)NCC(O)c2cccc(C(F)(F)F)c2)cc1 (configuration not stated) | 3.76%
CCCCc1ccc2[nH]cc(C3=CCN(C)CC3)c2c1Br | 2.19%
CC(Cc1ccc(OCCCCOc2ccccc2)cc1)NCCc1ccccc1Cl (configuration not stated) | 28%
COc1cc(NCCCNC(=O)c2cn(Cc3ccccc3)c3ccccc23)nc2ccccc12 | 1.49%
CCOc1ccc2nccc([C@@H](O)[C@@H]3C[C@@H]4CCN3C[C@@H]4CC)c2c1 | -0% and 0.78%
O=C(/C=C/c1ccc(Cl)c(Cl)c1)N1CCC(CN2CCC(c3c[nH]c4ccc(NS(=O)(=O)c5cccs5)cc34)CC2)CC1 | 6.43%
CC(=O)C1(c2ccccc2)CCN(CCC2(c3ccc(Cl)c(Cl)c3)CN(C(=O)Nc3cccc(C(F)(F)F)c3)CCO2)CC1 (configuration not stated) | 5.37%

SMILES | IFI
COc1ccc(C=CC(=O)NC2CCC(CN3CCC(c4c[nH]c5ccccc45)CC3)CC2)cc1 (configuration not stated) | 7.19% and 5.04%
O=C(O)c1ccc2nc(-c3ccc(-c4ccccc4)cc3)n(C3CCN(Cc4ccc(-c5ncc[nH]5)cc4)CC3)c2c1 | 4.08%
COC(=O)c1ccc(CC(C)NCC(O)c2cccc(Br)c2)cc1 (configuration not stated) | 2.84%
O=C(/C=C/c1ccc(Cl)c(Cl)c1)NCCCCCN1C2CCC1CC(c1c[nH]c3ccc(O)cc13)C2 (configuration not stated) | 8.03% and 8.82%
Oc1ccc(Cl)cc1CN1CCC(CCOC(c2ccccc2)c2ccc(Cl)cc2)CC1 (configuration not stated) | 3.13%
CC(=O)N(Cc1ccc(-c2ccc(CNCCc3ccccc3)cc2)cc1)C1CCN(Cc2ccccc2)CC1 | 6.02%
CN1CC(c2ccc(Cl)c(Cl)c2)OC1=N (configuration not stated) | 3.01%
Cc1cc(N(C)C2CCN(C)CC2)nc(Nc2ccc(Br)cc2)n1 | 2.41%
O=C(CNC1CCCCC1)c1ccc(O)c(O)c1 | 9.02%
CCCCCCC(C)(C)c1cc(O)c2c(c1)OC(C)(C)c1ccncc1-2 | 3.05%
O=C(NC1CCN(CC2(c3ccc(Cl)cc3)CCC2)CC1)c1cc[nH]n1 | 4.26%
COC(=O)c1ccc(CC(C)NCC(O)c2cccc(C(F)(F)F)c2)c(OC)c1 (configuration not stated) | 3.65%
CN(c1cc(NC(=O)c2ccccc2)ccn1)C1CCN(Cc2cccc(F)c2)CC1 | 2.94%
Cc1cc(O)cc2c(C3CCN(CC4CCC(NC(=O)/C=C/c5ccccc5Cl)CC4)CC3)c[nH]c12 (configuration not stated) | 7.3%
c1ccc(C(OCCC2CCN(Cc3cccnc3)CC2)c2ccccc2)cc1 | 0.79%
CCN(CC)CCOC(=O)C(OC)(c1ccccc1)c1ccccc1 | 2.21%
COC(C(=O)OCCC1CCCN1C)(c1ccccc1)C1CCCCC1 (configuration not stated) | 1.45%
O=C(/C=C/c1cc(C(F)(F)F)ccc1F)NC1CCC(CN2CCC(c3c[nH]c4ccccc34)CC2)CC1 (configuration not stated) | 2.27%
COc1cccc(/C=C/C(=O)NC2CCC(CN3CCC(c4c[nH]c5ccccc45)CC3)CC2)c1 (configuration not stated) | 5.63% and 4.17%
